Out of some 310,000 compounds screened, about 14,000 (4.5%) showed an effect of 50% or more. Effects have a minus sign here. Some of the results follow.
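Note: peak tail current of the secondary pulse compared with the same well before compound.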

Chain of human ether-à-go-go-related gene (hERG) potassium channel (Q12809 whole entry, looked up): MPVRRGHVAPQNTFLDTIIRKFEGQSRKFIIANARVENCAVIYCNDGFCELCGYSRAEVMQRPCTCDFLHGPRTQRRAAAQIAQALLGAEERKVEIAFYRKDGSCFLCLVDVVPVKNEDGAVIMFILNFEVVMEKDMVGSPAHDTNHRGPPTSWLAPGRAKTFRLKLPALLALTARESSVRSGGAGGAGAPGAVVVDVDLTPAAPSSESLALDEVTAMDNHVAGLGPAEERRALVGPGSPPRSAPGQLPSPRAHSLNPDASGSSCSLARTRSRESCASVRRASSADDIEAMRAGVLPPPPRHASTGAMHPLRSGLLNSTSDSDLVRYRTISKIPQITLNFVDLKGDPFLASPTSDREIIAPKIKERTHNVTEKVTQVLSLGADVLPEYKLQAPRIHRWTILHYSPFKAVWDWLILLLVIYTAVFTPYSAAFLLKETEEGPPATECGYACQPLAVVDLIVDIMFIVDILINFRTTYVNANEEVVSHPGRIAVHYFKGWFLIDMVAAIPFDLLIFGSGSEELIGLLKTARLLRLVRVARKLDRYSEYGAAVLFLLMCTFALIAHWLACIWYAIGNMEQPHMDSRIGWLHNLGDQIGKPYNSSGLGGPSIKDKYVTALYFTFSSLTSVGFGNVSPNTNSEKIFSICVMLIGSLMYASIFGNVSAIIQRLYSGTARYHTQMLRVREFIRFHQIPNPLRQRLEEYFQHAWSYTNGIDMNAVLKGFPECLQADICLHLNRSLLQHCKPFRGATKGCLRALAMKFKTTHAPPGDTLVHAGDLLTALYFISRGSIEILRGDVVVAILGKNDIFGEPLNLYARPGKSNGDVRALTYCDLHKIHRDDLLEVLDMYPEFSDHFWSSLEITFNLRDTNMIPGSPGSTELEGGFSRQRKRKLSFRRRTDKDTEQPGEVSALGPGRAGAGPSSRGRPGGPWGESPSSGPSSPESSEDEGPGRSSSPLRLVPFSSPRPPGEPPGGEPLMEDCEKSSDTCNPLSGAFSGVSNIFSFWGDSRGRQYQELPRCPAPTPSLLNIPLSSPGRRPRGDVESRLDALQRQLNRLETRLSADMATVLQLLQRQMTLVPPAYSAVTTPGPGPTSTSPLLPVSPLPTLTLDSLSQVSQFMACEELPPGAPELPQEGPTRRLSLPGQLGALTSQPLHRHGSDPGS

This assay has as its target human ether-à-go-go-related gene (hERG) potassium channel (human, UniProt Q12809). Briefly: primary screen, population patch clamp on CHO cells stably expressing hERG.
On to `NS(=O)(=O)c1ccc(C(=O)O)cc1`, for which the “hERG current change (%, negative = inhibition) at 10uM” value was 19.7%.

Regarding `O=C(O)c1ccccc1C(=O)N(Cc1ccccc1)Cc1ccccc1`, the “hERG current change (%, negative = inhibition) at 10uM” value is recorded as 8.03%.

Regarding `Cc1ccc2[nH]c(=O)c(CN(C)C(=O)c3cccs3)cc2c1`, the “hERG current change (%, negative = inhibition) at 10uM” value is listed as -5.06%.

In the case of `Br.CCCCCCCCn1c2c(c(=N)c3c1CCC3)CCCC2`, the “hERG current change (%, negative = inhibition) at 10uM” value is on record as -76.1%.

For `CCOC(=O)c1ccc(NC(=O)NCc2ccccn2)cc1`, the “hERG current change (%, negative = inhibition) at 10uM” value was -0.339%.

For the molecule `COc1cc(-c2nn3c(Cc4ccccc4)nnc3s2)cc(OC)c1OC`, the “hERG current change (%, negative = inhibition) at 10uM” value came to 4.49%.

In the case of `COc1ccc(NC(=S)NCc2ccco2)c(OC)c1`, the “hERG current change (%, negative = inhibition) at 10uM” value is listed as -2.08%.

Take `Cc1c(-c2ccccc2)nc(N)c(C#N)c1-c1cccnc1`: the “hERG current change (%, negative = inhibition) at 10uM” value is -9.64%.

As to `O=c1cc(Nc2ccc3c(c2)OCCO3)[nH]c(=O)n1-c1ccc(Br)cc1`, the “hERG current change (%, negative = inhibition) at 10uM” value is 14.3%.

In the case of `CCOC(=O)c1sc(=NC(=O)/C=C/c2cccs2)n(C)c1C`, the “hERG current change (%, negative = inhibition) at 10uM” value is listed as 11.6%.

Take `O=C(Nc1ccc(O)cc1C(=O)O)c1ccc(NC(=O)c2ccco2)cc1`: the “hERG current change (%, negative = inhibition) at 10uM” value stood at 16.9%.

Turning to `COc1ccc(C(=O)Nc2cc(C)nc3ccccc23)cc1OC`, the “hERG current change (%, negative = inhibition) at 10uM” value was -2.07%.

In the case of `C#Cc1ccc([C@H]2C=C(C(=O)N3CCN(Cc4ccc5c(c4)OCO5)CC3)O[C@@H](OCC)[C@@H]2CCCO)cc1`, the “hERG current change (%, negative = inhibition) at 10uM” value is reported as -11.9%.

On to `Cc1ccc(S(=O)(=O)NCCc2ccncc2)cc1[N+](=O)[O-]`, for which the “hERG current change (%, negative = inhibition) at 10uM” value was 15.8%.

In the case of `COc1ccc2nc(Nc3ccccc3)sc2c1`, the “hERG current change (%, negative = inhibition) at 10uM” value is on record as 18.8%.

As to `CCN1C(=O)C(CC(=O)Nc2ccc(OC)cc2)N(Cc2cccs2)C1=S` (stereo not drawn), the “hERG current change (%, negative = inhibition) at 10uM” value was -7.33%.

On to `Fc1ccccc1-c1nc2c(s1)CCc1onc(-c3ccc(Br)cc3)c1-2`, for which the “hERG current change (%, negative = inhibition) at 10uM” value is recorded as 11.4%.

In the case of `CCOc1ccc(C(=O)OCCN(C)C)cc1.Cl`, the “hERG current change (%, negative = inhibition) at 10uM” value is on record as -10.3%.

With `O=C(Nc1cccc(Cl)c1)c1cccc(Oc2ccc([N+](=O)[O-])cc2Cl)c1`, the “hERG current change (%, negative = inhibition) at 10uM” value was determined as 13.1%.

Turning to `Cl.c1ccc2c(c1)oc1c(N3CCOCC3)ncnc12`, the “hERG current change (%, negative = inhibition) at 10uM” value is given as 9.53%.

Take `Cc1c(C)n(Cc2ccccc2)c2ccc(C(=O)O)cc12`: the “hERG current change (%, negative = inhibition) at 10uM” value was 2.05%.

For `O=C(COc1ncnc2ccccc12)NCCc1ccccc1`, the “hERG current change (%, negative = inhibition) at 10uM” value was found to be 10.2%.

With `COc1ccc(Cc2nnc(SCC(=O)Nc3ccc(C)cc3)n(N)c2=O)cc1`, the “hERG current change (%, negative = inhibition) at 10uM” value worked out at 0.762%.

As for `Cc1cc(=O)n2c(n1)NC(Nc1cccc(C)c1C)=NC2c1ccc(F)cc1` (stereo not drawn), the “hERG current change (%, negative = inhibition) at 10uM” value is listed as 7.5%.

Regarding `O=C(C1CCCN1S(=O)(=O)c1cccc2cccnc12)N1CCN(c2ccccc2)CC1` (stereo not drawn), the “hERG current change (%, negative = inhibition) at 10uM” value was -45%.

In the case of `CCOc1cc(CNc2cccc3[nH]c(C)nc23)ccc1OC.Cl`, the “hERG current change (%, negative = inhibition) at 10uM” value worked out at 18.6%.

With `CCN(CC)CCCNC(=O)Cn1nc(-c2ccccc2)ccc1=O`, the “hERG current change (%, negative = inhibition) at 10uM” value is reported as -24.4%.

Regarding `CC1C(=O)N(c2ccc(S(=O)(=O)N(C)C)cc2)C1(/C=C/c1ccccc1)C(=O)NC1CCCC1` (stereo not drawn), the “hERG current change (%, negative = inhibition) at 10uM” value is recorded as 23.6%.

As for `NC(=O)NCc1ccccc1F`, the “hERG current change (%, negative = inhibition) at 10uM” value is recorded as 10.9%.

`CCc1cc(-c2n[nH]c(C)c2-c2nc3ccccc3n2C)c(O)c(CN2CCN(C)CC2)c1O`: the “hERG current change (%, negative = inhibition) at 10uM” value is reported as -35.1%.

As for `CC(C)C[C@H]1CNC(=O)C(=O)N1C[C@H](C)NC(=O)Cc1ccccc1`, the “hERG current change (%, negative = inhibition) at 10uM” value is listed as 3.39%.

On to `Fc1ccccc1NC(=S)N1CCN(Cc2ccccc2)CC1`, for which the “hERG current change (%, negative = inhibition) at 10uM” value is -2.71%.

As to `COc1ccc(/C=N/NC(=O)CCn2c3ccccc3c3ccccc32)cc1OC`, the “hERG current change (%, negative = inhibition) at 10uM” value is 4.4%.

On to `COC(=O)c1cc2ccccc2oc1=O`, for which the “hERG current change (%, negative = inhibition) at 10uM” value is 6.33%.

On to `Cc1nnc(SCCCOc2ccccc2)nc1C`, for which the “hERG current change (%, negative = inhibition) at 10uM” value was -2.1%.

As to `Cc1cc(O)c(C(C)C)cc1NC(=O)c1ccccc1Cl`, the “hERG current change (%, negative = inhibition) at 10uM” value is reported as -6.98%.

As for `COc1ccc(S(=O)(=O)N2CCCCCC2)cc1C(=O)N(C)Cc1ccc(C(C)(C)C)cc1`, the “hERG current change (%, negative = inhibition) at 10uM” value was -2.16%.

In the case of `O=C(NCCCN1CCCC1)c1ccc(CS(=O)(=O)c2ccc(Cl)cc2)o1`, the “hERG current change (%, negative = inhibition) at 10uM” value is -6.15%.

For the molecule `COc1ccc(C)cc1S(=O)(=O)N1CCCCC1`, the “hERG current change (%, negative = inhibition) at 10uM” value was -0.147%.

For the molecule `CCCN(CC(=O)Nc1ccccc1OC)C(=O)CCC(=O)c1ccc(F)cc1`, the “hERG current change (%, negative = inhibition) at 10uM” value is -13.3%.

Consider `COc1ccc(-c2nn(C)c3sc(C(=O)NCCN(C)C)cc23)cc1OC`, for which the “hERG current change (%, negative = inhibition) at 10uM” value was determined as 15.4%.

For `CN(C(=O)CC(=O)Nc1ccc(Cl)c(Cl)c1)c1ccccc1`, the “hERG current change (%, negative = inhibition) at 10uM” value is -22.2%.

Regarding `CCn1cc(C(=O)NC(C)C)c(=O)c2cc(F)c(N3CCN(C(=O)c4ccco4)CC3)cc21`, the “hERG current change (%, negative = inhibition) at 10uM” value was -34.6%.

Consider `Cc1ccc(S(=O)(=O)N(C)c2ccc(C)c([N+](=O)[O-])c2)cc1`, for which the “hERG current change (%, negative = inhibition) at 10uM” value is -15.7%.

Consider `CCCNC(=O)N1[C@H]2CC[C@@H]1C(C(=O)OC)=C(c1ccc(Cl)c(C(F)(F)F)c1)C2`, for which the “hERG current change (%, negative = inhibition) at 10uM” value was -11.4%.

The values above are taken from article PMC4336329 (PLoS ONE, 2015).
